T1: BMP6 (UniProt P22004 382-513)
T1 chain: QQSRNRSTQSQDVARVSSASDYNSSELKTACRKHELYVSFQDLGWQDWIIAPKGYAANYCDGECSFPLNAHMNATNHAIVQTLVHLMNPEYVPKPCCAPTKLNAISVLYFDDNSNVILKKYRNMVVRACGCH

T2: BMP9 (UniProt Q9UK05 320-429)
T2 chain: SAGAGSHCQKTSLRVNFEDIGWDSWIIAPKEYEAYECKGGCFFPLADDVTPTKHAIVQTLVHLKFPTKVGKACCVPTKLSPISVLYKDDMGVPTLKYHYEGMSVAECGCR

T3: BMP10 (UniProt O95393 317-424)
T3 chain: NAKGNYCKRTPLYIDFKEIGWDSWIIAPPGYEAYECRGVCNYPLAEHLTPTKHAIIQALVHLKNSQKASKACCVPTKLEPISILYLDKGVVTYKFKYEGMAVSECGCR


Assays:
BMP6 = target: T1, BMP6; assay: SPR; 37 C
BMP9 = target: T2, BMP9; assay: SPR; 37 C
BMP10 [1] = target: T3, BMP10; assay: SPR; 37 C
BMP10 [2] = target: T3, BMP10; assay: SPR; 37 C; transient binding

| Binder | Kd (BMP6) [nM] | Kd (BMP9) [nM] | Kd (BMP10 [1]) [nM] | Kd (BMP10 [2]) [nM] |
| --- | --- | --- | --- | --- |
| ActRIIB(F82S)-G1Fc (Fc fusion) GRGEAETRECIYYNANWELERTNQSGLERCEGEQDKRLHCYASWRNSSGTIELVKKGCWLDDSNCYDRQECVATEENPQVYFCCCEGNFCNERFTHLPEAGGPEVTYEPPPTAPTG[human IgG1 Fc and a few adjoining residues not shown] | 0.518 | 0.463 | 0.0116 | – |
| ActRIIB(E52N, F82I, N83R)-G1Fc (Fc fusion) GRGEAETRECIYYNANWELERTNQSGLERCEGNQDKRLHCYASWRNSSGTIELVKKGCWLDDIRCYDRQECVATEENPQVYFCCCEGNFCNERFTHLPEAGGPEVTYEPPPTAPTG[human IgG1 Fc and a few adjoining residues not shown] | – | – | 0.0585 | – |
| ActRIIB(E52Y, F82D, N83R)-G1Fc (Fc fusion) GRGEAETRECIYYNANWELERTNQSGLERCEGYQDKRLHCYASWRNSSGTIELVKKGCWLDDDRCYDRQECVATEENPQVYFCCCEGNFCNERFTHLPEAGGPEVTYEPPPTAPTG[human IgG1 Fc and a few adjoining residues not shown] | – | 1.09 | 0.031 | – |
| ActRIIB(F82L)-G1Fc (Fc fusion) GRGEAETRECIYYNANWELERTNQSGLERCEGEQDKRLHCYASWRNSSGTIELVKKGCWLDDLNCYDRQECVATEENPQVYFCCCEGNFCNERFTHLPEAGGPEVTYEPPPTAPTG[human IgG1 Fc and a few adjoining residues not shown] | 0.332 | 0.446 | 0.0135 | – |
| ActRIIB(L79S)-G1Fc (Fc fusion) GRGEAETRECIYYNANWELERTNQSGLERCEGEQDKRLHCYASWRNSSGTIELVKKGCWSDDFNCYDRQECVATEENPQVYFCCCEGNFCNERFTHLPEAGGPEVTYEPPPTAPTG[human IgG1 Fc and a few adjoining residues not shown] | 1.25 | 0.42 | 0.153 | – |
| ActRIIB(F82I, E94K)-G1Fc (Fc fusion) GRGEAETRECIYYNANWELERTNQSGLERCEGEQDKRLHCYASWRNSSGTIELVKKGCWLDDINCYDRQECVATKENPQVYFCCCEGNFCNERFTHLPEAGGPEVTYEPPPTAPTG[human IgG1 Fc and a few adjoining residues not shown] | 2.06 | 0.961 | 0.0219 | – |
| ActRIIB(L57R, F82S)-G1Fc (Fc fusion) GRGEAETRECIYYNANWELERTNQSGLERCEGEQDKRRHCYASWRNSSGTIELVKKGCWLDDSNCYDRQECVATEENPQVYFCCCEGNFCNERFTHLPEAGGPEVTYEPPPTAPTG[human IgG1 Fc and a few adjoining residues not shown] | 1.29 | 1.18 | 0.0765 | – |
| ActRIIB(L79W)-G1Fc (Fc fusion) GRGEAETRECIYYNANWELERTNQSGLERCEGEQDKRLHCYASWRNSSGTIELVKKGCWWDDFNCYDRQECVATEENPQVYFCCCEGNFCNERFTHLPEAGGPEVTYEPPPTAPTG[human IgG1 Fc and a few adjoining residues not shown] | 0.0338 | 0.102 | 0.00875 | – |
| ActRIIB(E52D, F82D, N83R)-G1Fc (Fc fusion) GRGEAETRECIYYNANWELERTNQSGLERCEGDQDKRLHCYASWRNSSGTIELVKKGCWLDDDRCYDRQECVATEENPQVYFCCCEGNFCNERFTHLPEAGGPEVTYEPPPTAPTG[human IgG1 Fc and a few adjoining residues not shown] | 5.15 | – | 0.354 | – |

Next, values leading:

| Kd (BMP6) [nM] | Kd (BMP9) [nM] | Kd (BMP10 [1]) [nM] | Kd (BMP10 [2]) [nM] | Binder |
| --- | --- | --- | --- | --- |
| 5.04 | – | – | 2.47 | ActRIIB(L57V, F82D, N83R)-G1Fc (Fc fusion) GRGEAETRECIYYNANWELERTNQSGLERCEGEQDKRVHCYASWRNSSGTIELVKKGCWLDDDRCYDRQECVATEENPQVYFCCCEGNFCNERFTHLPEAGGPEVTYEPPPTAPTG[human IgG1 Fc and a few adjoining residues not shown] |
| 2.55 | 1.1 | – | 1.41 | ActRIIB(L57R, F82D)-G1Fc (Fc fusion) GRGEAETRECIYYNANWELERTNQSGLERCEGEQDKRRHCYASWRNSSGTIELVKKGCWLDDDNCYDRQECVATEENPQVYFCCCEGNFCNERFTHLPEAGGPEVTYEPPPTAPTG[human IgG1 Fc and a few adjoining residues not shown] |
| 0.106 | 0.118 | 0.0207 | – | ActRIIB(L79F, F82D)-G1Fc (Fc fusion) GRGEAETRECIYYNANWELERTNQSGLERCEGEQDKRLHCYASWRNSSGTIELVKKGCWFDDDNCYDRQECVATEENPQVYFCCCEGNFCNERFTHLPEAGGPEVTYEPPPTAPTG[human IgG1 Fc and a few adjoining residues not shown] |
| 0.635 | 0.658 | 0.016 | – | ActRIIB(E52D, F82T)-G1Fc (Fc fusion) GRGEAETRECIYYNANWELERTNQSGLERCEGDQDKRLHCYASWRNSSGTIELVKKGCWLDDTNCYDRQECVATEENPQVYFCCCEGNFCNERFTHLPEAGGPEVTYEPPPTAPTG[human IgG1 Fc and a few adjoining residues not shown] |
| 2.88 | – | 0.169 | – | ActRIIB(L57I, F82E, N83R)-G1Fc (Fc fusion) GRGEAETRECIYYNANWELERTNQSGLERCEGEQDKRIHCYASWRNSSGTIELVKKGCWLDDERCYDRQECVATEENPQVYFCCCEGNFCNERFTHLPEAGGPEVTYEPPPTAPTG[human IgG1 Fc and a few adjoining residues not shown] |
| 23 | – | – | 13.9 | ActRIIB(L57R, F82E, N83R)-G1Fc (Fc fusion) GRGEAETRECIYYNANWELERTNQSGLERCEGEQDKRRHCYASWRNSSGTIELVKKGCWLDDERCYDRQECVATEENPQVYFCCCEGNFCNERFTHLPEAGGPEVTYEPPPTAPTG[human IgG1 Fc and a few adjoining residues not shown] |
| 2.5 | – | 0.0561 | – | ActRIIB(E52D, F82T, N83R)-G1Fc (Fc fusion) GRGEAETRECIYYNANWELERTNQSGLERCEGDQDKRLHCYASWRNSSGTIELVKKGCWLDDTRCYDRQECVATEENPQVYFCCCEGNFCNERFTHLPEAGGPEVTYEPPPTAPTG[human IgG1 Fc and a few adjoining residues not shown] |
| 16 | – | 0.213 | – | ActRIIB(L57V, F82Y, N83R)-G1Fc (Fc fusion) GRGEAETRECIYYNANWELERTNQSGLERCEGEQDKRVHCYASWRNSSGTIELVKKGCWLDDYRCYDRQECVATEENPQVYFCCCEGNFCNERFTHLPEAGGPEVTYEPPPTAPTG[human IgG1 Fc and a few adjoining residues not shown] |
| 10.9 | – | 0.576 | – | ActRIIB(L57I, F82D, N83R)-G1Fc (Fc fusion) GRGEAETRECIYYNANWELERTNQSGLERCEGEQDKRIHCYASWRNSSGTIELVKKGCWLDDDRCYDRQECVATEENPQVYFCCCEGNFCNERFTHLPEAGGPEVTYEPPPTAPTG[human IgG1 Fc and a few adjoining residues not shown] |
